The whole screen tested about 310,000 compounds, of which about 2,200 (0.71%) showed an effect of 50% or more. The effect is printed as a negative number. This is one part of the list.
molecular target: human ether-à-go-go-related gene (hERG) potassium channel (human, UniProt Q12809); test: primary screen, population patch clamp on CHO cells stably expressing hERG
Sequence (Q12809 whole entry, looked up): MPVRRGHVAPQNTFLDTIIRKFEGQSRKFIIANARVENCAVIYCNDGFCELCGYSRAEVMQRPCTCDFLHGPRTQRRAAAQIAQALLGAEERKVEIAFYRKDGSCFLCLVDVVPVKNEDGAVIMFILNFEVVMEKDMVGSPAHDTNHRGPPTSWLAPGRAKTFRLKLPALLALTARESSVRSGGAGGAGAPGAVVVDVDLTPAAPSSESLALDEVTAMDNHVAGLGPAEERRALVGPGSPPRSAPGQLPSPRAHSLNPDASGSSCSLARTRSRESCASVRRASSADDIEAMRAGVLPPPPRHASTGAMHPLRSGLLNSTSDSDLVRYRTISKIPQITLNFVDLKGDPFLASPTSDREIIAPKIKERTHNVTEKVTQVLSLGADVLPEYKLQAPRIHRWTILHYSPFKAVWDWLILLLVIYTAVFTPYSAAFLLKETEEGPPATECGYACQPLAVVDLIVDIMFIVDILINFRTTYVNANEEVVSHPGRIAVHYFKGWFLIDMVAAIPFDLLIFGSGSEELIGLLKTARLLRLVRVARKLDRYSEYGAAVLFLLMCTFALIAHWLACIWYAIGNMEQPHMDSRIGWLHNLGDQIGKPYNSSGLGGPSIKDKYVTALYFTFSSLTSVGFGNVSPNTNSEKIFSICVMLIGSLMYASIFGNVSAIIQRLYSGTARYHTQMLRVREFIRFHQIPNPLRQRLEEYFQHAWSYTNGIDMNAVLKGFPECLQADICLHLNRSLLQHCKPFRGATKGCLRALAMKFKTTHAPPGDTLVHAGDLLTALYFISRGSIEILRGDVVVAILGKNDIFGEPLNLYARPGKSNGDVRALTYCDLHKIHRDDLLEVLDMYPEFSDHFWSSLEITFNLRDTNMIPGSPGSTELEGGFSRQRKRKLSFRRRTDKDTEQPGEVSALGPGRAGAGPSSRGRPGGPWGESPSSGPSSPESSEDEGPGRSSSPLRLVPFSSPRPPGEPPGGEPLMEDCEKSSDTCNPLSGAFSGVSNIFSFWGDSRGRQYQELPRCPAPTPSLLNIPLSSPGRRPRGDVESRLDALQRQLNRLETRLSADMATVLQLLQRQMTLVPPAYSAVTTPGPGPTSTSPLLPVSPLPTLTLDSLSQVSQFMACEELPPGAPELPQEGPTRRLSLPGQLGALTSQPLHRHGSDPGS

**Q.** How did the “hERG current change (%, negative = inhibition) at 1uM” value turn out when `O=C(O)c1cccc(Cn2c(Cl)c(/C=N/NC(=O)c3cc4ccccc4cc3O)sc2=O)c1` was run?
**A.** Its value is 13.1%.

**Q.** With `O=C(CN1C(=O)CSc2ncccc21)Nc1ccccc1F` as the compound, how does the “hERG current change (%, negative = inhibition) at 1uM” value read?
**A.** Its value is 10.8%.

**Q.** With `CNC(=O)COC(=O)Cc1ccc(Cl)cc1` as the compound, how does the “hERG current change (%, negative = inhibition) at 1uM” value read?
**A.** Its value is 2.48%.

**Q.** How did the “hERG current change (%, negative = inhibition) at 1uM” value turn out when `CC1=CN2C(=N)/C(=C/c3ccc(Sc4ccc(C)cc4)o3)C(=O)N=C2S1` was run?
**A.** Its value is 13.7%.

**Q.** `COc1ccc(-n2c(Cn3nnc4ccccc43)nnc2SCC(=O)O)cc1` was tested. Which “hERG current change (%, negative = inhibition) at 1uM” value did it give?
**A.** Its value is 11.8%.

**Q.** `CC(=O)OC1c2ccccc2C(=O)N1Cc1ccccc1` (stereo not shown) was tested. Which “hERG current change (%, negative = inhibition) at 1uM” value did it give?
**A.** The value was 12.1%.

**Q.** With `CN1C2CCC1CC(OC(=O)c1c[nH]c3ccccc13)C2.Cl` (stereo not shown) as the compound, how does the “hERG current change (%, negative = inhibition) at 1uM” value read?
**A.** The value was -4.75%.

**Q.** Which “hERG current change (%, negative = inhibition) at 1uM” value does the source give for `CCCOc1ccc(C(=O)C(CN2CCOCC2)c2ccccc2)cc1` (stereo not shown) here?
**A.** Its value is 2.75%.

**Q.** For `CSCCC(NC(=O)c1ccccc1)C(=O)N1CC(C)OC(C)C1` (stereo not shown), which “hERG current change (%, negative = inhibition) at 1uM” value is on record?
**A.** The value was 2.34%.

**Q.** `COc1ccccc1NC(=S)NC(C)C(c1cccs1)N1CCOCC1` (stereo not shown) was tested. Which “hERG current change (%, negative = inhibition) at 1uM” value did it give?
**A.** The value was 8.67%.

**Q.** How did the “hERG current change (%, negative = inhibition) at 1uM” value turn out when `COc1c2c(nc3occc13)C(CC=C(C)C)(OC)C(OC(C)=O)CC2` (stereo not shown) was run?
**A.** The value was 12.6%.

**Q.** With `COc1ccc(CC(=O)OCC(=O)c2ccc[nH]2)cc1` as the compound, how does the “hERG current change (%, negative = inhibition) at 1uM” value read?
**A.** Its value is 9.13%.

**Q.** For `CCOc1ccccc1N(CC(=O)NC1CCCCC1)C(=O)CNC(=O)c1ccco1`, which “hERG current change (%, negative = inhibition) at 1uM” value is on record?
**A.** The value was 17.9%.

**Q.** With `CN(C)Cc1nc2c([nH]1)c(=O)n(C)c(=O)n2C` as the compound, how does the “hERG current change (%, negative = inhibition) at 1uM” value read?
**A.** The value was 1.78%.

**Q.** For `N#CC1=C2SCC(O)(c3ccccc3)N2C(=O)CC1c1cccs1` (stereo not shown), which “hERG current change (%, negative = inhibition) at 1uM” value is on record?
**A.** Its value is -13.3%.

**Q.** Which “hERG current change (%, negative = inhibition) at 1uM” value does the source give for `Cc1ccc2[nH]c(=O)c(CN(CC3CCCO3)C(=O)c3cccs3)cc2c1` (stereo not shown) here?
**A.** The value was 8.55%.

**Q.** Which “hERG current change (%, negative = inhibition) at 1uM” value does the source give for `CCCCN1C(=O)/C(=C\c2ccco2)C(=O)N(CCc2ccccc2)C1=O` here?
**A.** Its value is 13.3%.

**Q.** `CN1CCN(S(=O)(=O)c2ccc(SCCOc3ccccc3)nc2)CC1` was tested. Which “hERG current change (%, negative = inhibition) at 1uM” value did it give?
**A.** Its value is -16.4%.

**Q.** `COc1ccc(C2SCC(=O)Nc3c2c(=O)[nH]n3C2CCCCC2)cc1` (stereo not shown) was tested. Which “hERG current change (%, negative = inhibition) at 1uM” value did it give?
**A.** Its value is 13.7%.

**Q.** `Cc1cc(C)nc(N2CCN(S(=O)(=O)c3ccc(F)cc3)CC2)n1` was tested. Which “hERG current change (%, negative = inhibition) at 1uM” value did it give?
**A.** The value was 15.4%.

**Q.** How did the “hERG current change (%, negative = inhibition) at 1uM” value turn out when `COc1ccc(/C=C/C(=O)c2ccoc2)cc1` was run?
**A.** Its value is 11.4%.

**Q.** With `O=C1C=C(c2cc3ccccc3s2)C[C@@H](c2ccc(F)cc2)C1` as the compound, how does the “hERG current change (%, negative = inhibition) at 1uM” value read?
**A.** Its value is 2.12%.

**Q.** Which “hERG current change (%, negative = inhibition) at 1uM” value does the source give for `COc1ccccc1NC(=O)Nc1ccnn1C1CCN(C(=O)c2cccnc2)CC1` here?
**A.** The value was 2.73%.

**Q.** For `Cc1ccc(C(=O)Nc2ccc(Oc3cccc(C(F)(F)F)c3)nc2)cc1`, which “hERG current change (%, negative = inhibition) at 1uM” value is on record?
**A.** The value was 14%.

**Q.** For `O=C(CSc1nnc2ccccn12)Nc1ccc2c(c1)OCO2`, which “hERG current change (%, negative = inhibition) at 1uM” value is on record?
**A.** Its value is 11.5%.

Reference: paper PMC4336329 (PLoS ONE, 2015)
